From PubChem BioAssay AID686971 (National Center for Advancing Translational Sciences (NCATS), 2013)
Hit rate of the full screen: of about 360,000 compounds, about 7,500 (2.1%) were called active. The inconclusive results got no clear call from the source; some entries with a clear call stand among them for comparison. Calls follow the shape of the dose curve; as a rule, active = well fitted cell-killing curve with a large enough effect; inconclusive = small, poorly fitted or top-dose-only effect, or effect the other way, or another doubt; inactive = no such curve, though single readings can be large or run the other way. Potencies of inconclusive entries are left out as doubtful fits.

Assay: qHTS for induction of synthetic lethality in tumor cells producing 2HG: qHTS for the HT-1080-IDH1KD cell line;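 as to activity, negative = toxicity: 0% = DMSO wells and -100% = cell-free medium wells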
Conditions: HT-1080 IDH1 knockdown viability, ATP luminescence, 48 h; activity, negative = toxicity: at 46.1 µM (top of the series) unless noted
Method in brief: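 IDH1KD HT-1080 cells, 750/well, RPMI + 5% FBS; compound pinned after 2 h settling; 48 h, 37 °C; CellTiter-Glo luminescence; % activity normalised to DMSO and no-cell wells; curves fitted, classed by r2 and efficacy.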
Potency is read from the fitted curve at half-maximal effect; tags tell the direction and shape of the fitted curve.

Row | Structure (SMILES) | activity, negative = toxicity | Potency
1 | CCOc1ccc(Nc2nc(N3CCCCC3)nc(N3CCCCC3)n2)cc1 | inactive: 8.86% | –
2 | O=C(OCc1ccccc1)N1CCN(C(c2ccnc3ccccc23)c2nnnn2-c2ccc3c(c2)OCCO3)CC1 (stereo not drawn) | – | inconclusive [cytotoxic, partial curve]
3 | CC1(C(=O)NCc2cccc(Cl)c2)Cc2c(-c3cccc(C(N)=O)c3)ccnc2O1 (stereo not drawn) | – | inconclusive [cytotoxic, partial curve]
4 | CCCCN(C)c1c(C)nc2ccc(C(=O)Nc3cc(-c4ccccc4)ccc3OC)cn12 | – | inconclusive [cytotoxic, single point]
5 | Cc1ccc(Sc2oc(/C=N/n3cnnc3)cc2Br)cc1 | – | inconclusive [cytotoxic, partial curve]
6 | CC(=O)c1ccc(NC(=S)NC(C)c2ccc(Cl)cc2Cl)cc1 (stereo not drawn) | – | inconclusive [cytotoxic, single point]
7 | O=S(=O)(NCc1ccc(F)cc1)c1ccc(-c2cnc(C3CC3)o2)cc1 | – | inconclusive [cytotoxic, single point]
8 | c1cnc2c(OCc3cn4cccnc4n3)cccc2c1 | inactive: 0.0167% | –
9 | COc1ccccc1N1CC(C)(C)C(=O)N(C(=O)c2ccc(Cl)cc2)C1=S | – | inconclusive [cytotoxic, single point]
10 | CN1CCc2nc(SCc3ccc(C(C)(C)C)cc3)c(C#N)cc2C1 | – | active: 11.2 µM
11 | CC(=O)c1cccc(NC(=O)C2(C)Cc3c(-c4cccc(C(F)(F)F)c4)ccnc3O2)c1 (stereo not drawn) | – | inconclusive [cytotoxic, single point]
12 | CCOC(=O)/C(=C\c1cccnc1)C(=O)c1cc(C(C)=O)c(Nc2ccccc2)s1 | – | active: 4.11 µM
13 | CC1CCCCN1Cc1c(O)ccc2c(=O)c(-c3nc4ccccc4s3)coc12 (stereo not drawn) | – | inconclusive [cytotoxic, single point]
14 | Cn1c(O)c(/C=C2\C=Nc3ccccc32)sc1=Nc1ccc(C(=O)O)cc1 | inactive: 7.63% | –
15 | Cc1ccccc1CN1C(=O)/C(=C\c2ccc(C(=O)NCCN3CCOCC3)cc2)Sc2ccccc21 | – | inconclusive [cytotoxic, single point]
16 | CC1CCCCN1S(=O)(=O)c1ccc(C(=O)Nc2nnc(-c3ccncc3)o2)cc1 (stereo not drawn) | – | inconclusive [cytotoxic, single point]
17 | O=C(CS(=O)(=O)c1ccccc1)Nc1nc(-c2ccc(F)cc2)cs1 | inactive: 0.0708% | –
18 | O=c1[nH]ncc(N2CCN(Cc3ccccc3)CC2)c1Cl | inactive: 26.6% | –
19 | COc1ccccc1C=NN=C1c2ccccc2-c2ccccc21 | inconclusive: 29.1% | –
20 | Cc1ccc(C)c(-n2c(C)cc(/C=N/NC(=O)c3c(C)nc4cc(C)ccn34)c2C)c1 | – | inconclusive [cytotoxic, single point]
21 | CN1CCN(/N=C/c2ccc(-c3ccc([N+](=O)[O-])cc3Cl)o2)CC1 | – | inconclusive [cytotoxic, single point]
22 | NNC(=O)c1cc2cc3ccccc3nc2s1 | – | inconclusive [cytotoxic, single point]
23 | COC(=O)c1ccc(N2C(c3cccc(OC)c3)=Cc3ccc(F)cc3C2c2c(C)[nH]c3ccccc23)cc1 (stereo not drawn) | – | inconclusive [cytotoxic, single point]

Row | Structure (SMILES) | activity, negative = toxicity | Potency
24 | O=C(Nc1ccc(F)cc1)Oc1ccccc1N1CCOCC1 | inactive: 21.8% | –
25 | COC(=O)CN1C(=S)N(Cc2ccccc2)C(=O)C1CC(=O)Nc1ccc(Br)cc1 (stereo not drawn) | – | inconclusive [cytotoxic, single point]
26 | COCCN(C(=O)COC(=O)CSc1ccccc1)c1c(N)n(Cc2ccccc2)c(=O)[nH]c1=O | inactive: 5.5% | –
27 | CC(C)=CCc1c(O)cc2oc3c(CC=C(C)C)c(O)c(O)c(CC=C(C)C)c3c(=O)c2c1O | – | inconclusive [cytotoxic, single point]
28 | CCc1c(O)nc(SCC(=O)Nc2nc3ccccc3s2)n(-c2ccccc2)c1=O | – | inconclusive [cytotoxic, partial curve]
29 | Cc1ccc(S(=O)(=O)Nc2cccc3ncccc23)s1 | – | inconclusive [cytotoxic, partial curve]
30 | COc1cccc2c(=O)c3ccoc3n(C)c12 | inactive: 3.95% | –
31 | COc1cccc(-n2cnc3sc(C)cc3c2=O)c1 | – | inconclusive [rising, single point]
32 | C=CC[C@@H](CC(=O)N(CCO)Cc1ccccc1)C(=O)NC[C@@H](OC(=O)[C@@H](CC=C)Cc1ccc(F)cc1)c1ccccc1 | – | inconclusive [cytotoxic, single point]
33 | CCOc1ccc(Nc2oc(-c3ccco3)nc2C#N)cc1 | – | inconclusive [cytotoxic, single point]
34 | CN(CC(=O)NC1CC1)S(=O)(=O)c1ccc(F)cc1 | inactive: -0.111% | –
35 | CN(C)CC(O)COc1ccc(C(C)(C)c2ccc(OCC(O)CN(C)C)cc2)cc1 (stereo not drawn) | – | inconclusive [cytotoxic, single point]
36 | N#Cc1c(-c2ccccc2)nc(SCC(=O)Nc2ccc(OC(F)(F)Cl)cc2)[nH]c1=O | inactive: -2.49% | –
37 | CCCC(=O)NC(c1ccc(OC)c(OC)c1)c1cc(Cl)c2cccnc2c1O (stereo not drawn) | – | inconclusive [cytotoxic, partial curve]
38 | CN(C)CCNC(=O)COc1ccc(C23CC4CC(CC(C4)C2)C3)cc1 | – | inconclusive [cytotoxic, single point]
39 | COc1cc2c(cc1NC(=O)CN(C)Cc1ccc(OC)c(OC)c1)oc1ccccc12 | – | inconclusive [cytotoxic, single point]
40 | CC(=O)NC(c1ccc(C(C)C)cc1)c1c(O)ccc2ccccc12 (stereo not drawn) | – | inconclusive [cytotoxic, single point]
41 | Cc1nc(SCc2ccc(F)cc2)c2oc3ccccc3c2n1 | inactive: 10.5% | –
42 | C[C@H](CO)N1C[C@H](C)[C@@H](CN(C)C(=O)NC2CCCCC2)Oc2c(NC(=O)c3ccncc3)cccc2C1=O | inactive: 14.6% | –
43 | O=C(NCC1CCCO1)c1coc2nc3ccccc3nc12 (stereo not drawn) | – | inconclusive [cytotoxic, single point]
44 | CC(C)(CNC(=O)CC1C(=O)NCCN1Cc1cccc(F)c1F)N1CCOCC1 (stereo not drawn) | – | inconclusive [rising, single point]
45 | COc1ccccc1/C=N/N1C(=O)C2C3C=CC(CC3)C2C1=O (stereo not drawn) | inactive: -3.01% | –
46 | COc1cccc(NC(=O)n2ncc3c(C)cccc32)c1 | – | inconclusive [cytotoxic, single point]

Row | Structure (SMILES) | activity, negative = toxicity | Potency
47 | Cc1ccc(/C=N/Nc2nncn2N)cc1 | – | inconclusive [cytotoxic, single point]
48 | Cc1ccc(C)c(N(CC(=O)NC2CCCC2)C(=O)c2cc3cc4cccc(C)c4nc3s2)c1 | inactive: 9.07% | –
49 | CCC(=O)c1ccc(OCC(O)CN2CCN(c3ccc(F)cc3)CC2)cc1 (stereo not drawn) | inactive: 10.3% | –
50 | Cc1ccc2c(C)c(C(=O)N(Cc3cccs3)C3CCS(=O)(=O)C3)oc2c1 (stereo not drawn) | inactive: -21.7% | –
51 | Clc1cccc(-c2nc(-c3ccccn3)no2)c1 | – | inconclusive [cytotoxic, partial curve]
52 | CC1CCCN(CCCNC(=O)c2cc3c(s2)-c2ccccc2OC3)C1 (stereo not drawn) | – | inconclusive [cytotoxic, single point]
53 | CC1SCC(=O)N(CC(=O)NCCc2ccccc2)C1=O (stereo not drawn) | – | inconclusive [rising, single point]
54 | C(=N\Nc1nc2ccccc2[nH]1)/C1CCCCC1 | – | inconclusive [cytotoxic, single point]
55 | COc1cc(-c2cc(NC(C)=O)c3ncc(-c4ccccc4)n3c2)cc(OC)c1OC | – | inconclusive [cytotoxic, single point]
56 | N=c1c(C(=O)NCCc2ccccc2)cc2c(=O)n3ccccc3nc2n1Cc1ccco1 | – | inconclusive [cytotoxic, partial curve]
57 | Cc1cc(NC(=O)CCCN2C(=O)c3cccnc3C2=O)no1 | – | inconclusive [cytotoxic, single point]
58 | O=C(Nc1ccc(Cl)cn1)c1ccc([N+](=O)[O-])o1 | – | active: 20.6 µM
59 | COc1ccc(-c2cc(C(F)(F)F)nc(S(C)(=O)=O)n2)cc1 | – | inconclusive [cytotoxic, single point]
60 | COc1ccc(-c2c(-c3cc(OC)c(OC)c(OC)c3)noc2C)cn1 | – | active: 1.46 µM
61 | COc1ccc(-c2cc(=O)[nH]c(NCc3ccccc3)n2)cc1 | – | inconclusive [cytotoxic, single point]
62 | N#Cc1ccccc1NC(=O)CNc1ccccc1N1CCCCC1 | – | inconclusive [cytotoxic, single point]
63 | Cc1ccccc1C(=O)Nc1scc(-c2ccc(Br)cc2)c1C(=O)O | – | inconclusive [cytotoxic, single point]
64 | O=C(NCCCN1CCOCC1)c1ccc(CSc2ccc(Cl)cc2)cc1 | – | inconclusive [cytotoxic, single point]
65 | Cc1ccc(S(=O)(=O)NC(CC(C)C)C(=O)NCC(c2ccco2)N2CCCCC2)cc1 (stereo not drawn) | inconclusive: -26.3% [cytotoxic] | –
66 | CCCCN(C(=O)c1c(C)[nH]c(C(=O)OCC)c1C)c1ccccc1 | – | inconclusive [cytotoxic, single point]
67 | Cc1cc(C)n2nc(C(=O)OCC(=O)c3c[nH]c4ccccc34)nc2n1 | inactive: -2.68% | –
68 | CCOC(=O)C1CCN(CC(O)COc2ccc(C(C)(C)C)cc2)CC1 (stereo not drawn) | – | inconclusive [cytotoxic, single point]
